Assay results reported in publication PMC5029610.
These are yes or no findings as the source states them, for the method shown. Binding seen in cells or lysates may run through a third protein. Some results given as binding are weak or reduced against the parent protein; the word gives no strength. Each block holds one molecule with its values, some of them ahead of it.

Amino acid sequences for entries named in this document (tags omitted).
UniProt O35800: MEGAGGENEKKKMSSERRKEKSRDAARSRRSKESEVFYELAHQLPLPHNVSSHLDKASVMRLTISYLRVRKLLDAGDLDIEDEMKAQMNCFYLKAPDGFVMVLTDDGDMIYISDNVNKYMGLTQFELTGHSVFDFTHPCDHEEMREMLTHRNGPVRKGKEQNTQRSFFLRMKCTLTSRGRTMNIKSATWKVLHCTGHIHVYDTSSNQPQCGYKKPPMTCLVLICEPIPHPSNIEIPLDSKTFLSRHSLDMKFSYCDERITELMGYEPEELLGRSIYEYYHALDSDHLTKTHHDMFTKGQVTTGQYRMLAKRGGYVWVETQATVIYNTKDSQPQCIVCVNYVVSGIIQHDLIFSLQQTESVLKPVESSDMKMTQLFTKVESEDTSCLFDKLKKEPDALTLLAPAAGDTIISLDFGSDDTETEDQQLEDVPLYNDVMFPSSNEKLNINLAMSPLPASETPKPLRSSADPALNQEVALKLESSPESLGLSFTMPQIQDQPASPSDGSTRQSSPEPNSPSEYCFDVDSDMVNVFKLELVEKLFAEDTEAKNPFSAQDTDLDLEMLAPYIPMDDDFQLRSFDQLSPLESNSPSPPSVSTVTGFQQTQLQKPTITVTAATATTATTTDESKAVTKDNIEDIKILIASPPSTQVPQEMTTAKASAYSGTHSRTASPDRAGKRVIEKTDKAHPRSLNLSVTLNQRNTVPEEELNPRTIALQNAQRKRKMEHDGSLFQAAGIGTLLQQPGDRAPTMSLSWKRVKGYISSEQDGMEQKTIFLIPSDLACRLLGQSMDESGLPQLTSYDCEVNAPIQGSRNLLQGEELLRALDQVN
UniProt Q9EPW1: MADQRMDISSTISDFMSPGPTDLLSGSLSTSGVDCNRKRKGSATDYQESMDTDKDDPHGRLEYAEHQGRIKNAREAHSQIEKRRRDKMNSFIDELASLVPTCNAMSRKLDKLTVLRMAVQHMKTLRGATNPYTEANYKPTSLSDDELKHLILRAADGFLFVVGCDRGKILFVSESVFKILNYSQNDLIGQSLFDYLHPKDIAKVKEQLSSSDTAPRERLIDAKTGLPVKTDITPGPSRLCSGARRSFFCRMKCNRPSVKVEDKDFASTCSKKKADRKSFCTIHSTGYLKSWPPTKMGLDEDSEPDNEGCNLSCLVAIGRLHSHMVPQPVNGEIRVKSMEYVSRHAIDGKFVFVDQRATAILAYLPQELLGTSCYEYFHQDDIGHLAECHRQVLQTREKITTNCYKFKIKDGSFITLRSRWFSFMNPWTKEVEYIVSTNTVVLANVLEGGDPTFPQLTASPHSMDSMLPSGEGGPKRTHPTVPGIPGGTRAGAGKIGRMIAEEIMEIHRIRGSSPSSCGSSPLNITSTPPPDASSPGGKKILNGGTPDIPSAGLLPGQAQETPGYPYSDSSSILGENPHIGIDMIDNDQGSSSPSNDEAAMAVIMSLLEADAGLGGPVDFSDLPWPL
UniProt P41739: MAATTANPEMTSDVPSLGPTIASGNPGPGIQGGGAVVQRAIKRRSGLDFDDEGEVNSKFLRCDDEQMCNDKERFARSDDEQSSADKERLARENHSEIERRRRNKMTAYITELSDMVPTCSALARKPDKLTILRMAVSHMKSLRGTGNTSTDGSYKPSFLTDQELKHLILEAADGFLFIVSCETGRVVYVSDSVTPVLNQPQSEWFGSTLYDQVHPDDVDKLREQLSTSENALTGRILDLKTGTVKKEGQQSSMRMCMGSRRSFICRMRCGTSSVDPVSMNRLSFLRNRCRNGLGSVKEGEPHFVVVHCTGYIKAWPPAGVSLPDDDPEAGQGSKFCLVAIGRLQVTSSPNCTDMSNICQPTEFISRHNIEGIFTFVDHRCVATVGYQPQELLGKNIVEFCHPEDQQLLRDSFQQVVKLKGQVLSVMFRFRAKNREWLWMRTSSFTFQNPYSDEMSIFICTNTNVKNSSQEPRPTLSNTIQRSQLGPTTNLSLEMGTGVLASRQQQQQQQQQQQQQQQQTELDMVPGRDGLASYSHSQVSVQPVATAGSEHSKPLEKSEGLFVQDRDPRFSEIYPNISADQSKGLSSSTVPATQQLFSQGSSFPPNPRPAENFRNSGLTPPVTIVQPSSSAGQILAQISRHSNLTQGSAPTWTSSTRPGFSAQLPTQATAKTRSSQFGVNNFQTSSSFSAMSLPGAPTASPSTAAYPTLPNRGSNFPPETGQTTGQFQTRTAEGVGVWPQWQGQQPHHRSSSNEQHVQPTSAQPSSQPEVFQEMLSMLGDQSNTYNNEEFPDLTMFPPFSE

Assays:
Assay in all cases: co-IP; immunoprecipitation of endogenous proteins from NP cells cultured under normoxia or hypoxia (1% O2) for 24 h; Protein A/G PLUS-Agarose beads; Western blot; preimmune rabbit IgG as negative control
[1] = target: HIF-1α (not stated (endogenous in rat or mouse NP cells)) (UniProt O35800)
[2] = target: T1, CLOCK (not stated (endogenous in rat or mouse NP cells)) (UniProt Q9WVS9)
T1 sequence: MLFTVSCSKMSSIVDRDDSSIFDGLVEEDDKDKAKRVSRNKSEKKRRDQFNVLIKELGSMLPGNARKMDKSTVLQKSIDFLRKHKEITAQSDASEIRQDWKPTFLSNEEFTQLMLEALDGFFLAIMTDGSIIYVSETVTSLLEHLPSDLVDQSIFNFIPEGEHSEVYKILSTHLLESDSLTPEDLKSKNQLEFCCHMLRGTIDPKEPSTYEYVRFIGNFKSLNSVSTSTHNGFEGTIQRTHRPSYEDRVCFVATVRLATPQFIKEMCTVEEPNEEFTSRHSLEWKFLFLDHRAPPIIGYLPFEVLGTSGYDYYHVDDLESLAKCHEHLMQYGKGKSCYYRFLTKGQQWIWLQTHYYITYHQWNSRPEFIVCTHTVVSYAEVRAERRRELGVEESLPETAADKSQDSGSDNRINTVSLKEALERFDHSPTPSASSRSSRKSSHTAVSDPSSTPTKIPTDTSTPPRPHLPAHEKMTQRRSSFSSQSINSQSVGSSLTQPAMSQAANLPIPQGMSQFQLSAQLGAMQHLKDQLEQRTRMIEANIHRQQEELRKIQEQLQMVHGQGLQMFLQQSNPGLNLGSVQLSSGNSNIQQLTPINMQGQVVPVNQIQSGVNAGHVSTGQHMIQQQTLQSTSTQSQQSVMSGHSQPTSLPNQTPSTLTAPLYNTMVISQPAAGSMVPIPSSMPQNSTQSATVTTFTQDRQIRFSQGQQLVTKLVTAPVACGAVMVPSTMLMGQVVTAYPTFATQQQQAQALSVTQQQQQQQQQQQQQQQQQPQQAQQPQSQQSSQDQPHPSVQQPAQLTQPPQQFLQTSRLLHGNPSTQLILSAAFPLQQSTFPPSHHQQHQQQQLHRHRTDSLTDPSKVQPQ

[3] = target: BMAL1 (brain and muscle ARNT-like1) (not stated (endogenous in rat or mouse NP cells)) (UniProt Q9EPW1)

binding [1]: no binding
binding [2]: binds
Molecule: BMAL1 (brain and muscle ARNT-like1) (from UniProt Q9EPW1 1-626)

binding [3]: no binding
binding [2]: no binding
Molecule: HIF-1α (from UniProt O35800 1-825)

binding [1]: binds
Molecule: HIF-1β/ARNT (from UniProt P41739 1-800)

binding [1]: no binding
binding [3]: binds
B1: CLOCK (protein, UniProt Q9WVS9 1-862)
chain: T1 sequence
